# Reference: PubChem BioAssay AID1508623 (National Center for Advancing Translational Sciences (NCATS), 2021)
# Out of some 48,000 compounds screened, about 450 (0.94%) were called active. Not shown: some 19% with an inconclusive outcome. Calls follow the shape of the dose curve; as a rule, active = well fitted inhibition curve with a large enough effect; inconclusive = small, poorly fitted or top-dose-only effect; inactive = no such curve, though single readings can be large or run the other way. Some of the results follow.
# Test: Primary qHTS for Identification of Small Molecule Inhibitors of Huntingtin Promoter Activity; also: nearly all actives have a fitted effect of over 50% in size
# Settings: HEK293 HTT promoter firefly luciferase reporter (activity 0% = vehicle and -100% = no light), 24 h; series mostly up to 57.5 µM; activity change, negative = inhibition: at the top concentration
# Outline: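 HEK293 Fluc reporter, 2,500 cells/well, 24 h pre-culture; cpds up to 57.5 uM final, 24 h 37 degrees C; Dual-Glo, 10 min RT; normalized vehicle = 0%, zero RLU = -100%.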
row,Structure (SMILES),"activity change, negative = inhibition"
1,CCOc1ccc(NC(=O)Cn2c(=O)cc(C)c3c(C)nn(-c4cccc(Cl)c4C)c32)cc1,inactive: -1.17%
2,CCOc1ccc(C(=O)N2CCN(CCc3ccccn3)CC2)cc1,inactive: -12.2% [at 11.5 µM]
3,Cn1c(=O)[nH]c(=O)c2c1nc1n2CCN1c1ccccc1,inactive: 1.51%
4,CCOc1ccc(S(=O)(=O)c2cn(Cc3ccc(OC)cc3)c3ccc(F)cc3c2=O)cc1,inactive: -19.5%
5,CCOC(=O)CC(NC(=O)CCc1c(C)nc2ncnn2c1C)c1ccc(OC(C)C)cc1 (configuration not stated),inactive: 0.587%
6,Cc1ccccc1CSc1nc2cccnc2n1Cc1ccc(C(=O)NC2CC2)cc1,inactive: -5.5%
7,CCOC(=O)c1ccccc1NC(=O)CSc1cn(CC(=O)N2CCOCC2)c2ccccc12,inactive: -10.7%
8,COc1ccc(CNC(=O)C2CCC(CNS(=O)(=O)c3cccs3)CC2)cc1 (configuration not stated),inactive: -9.81%
9,Cc1ccc(-c2nc(S(=O)(=O)c3ccc(C)cc3)c(N3CCCCCC3)o2)cc1,inactive: -13.9%
10,Cc1ccc(N2CCN(S(=O)(=O)c3nnc(NC(=O)c4ccc(C(C)C)cc4)s3)CC2)cc1,inactive: -2.31%
11,CCOc1ccc(NC(=O)CN2C(C(=O)OC)=C(c3ccccc3)c3cc(Cl)ccc3S2(=O)=O)cc1,inactive: -2.6%
12,Cc1cc(=O)[nH]c2nnc(SCc3ccc(Cl)cc3)n12,inactive: -15.2%
13,COC(=O)C1=C(c2ccccc2)c2ccccc2S(=O)(=O)N1CC(=O)Nc1ccc(OC)cc1OC,inactive: -21.9%
14,O=C(NCc1ccccc1)C1CCN(S(=O)(=O)c2ccc3[nH]c(=O)ccc3c2)CC1,inactive: 8.92%
15,Cc1cccc(N(C)S(=O)(=O)c2c(C(=O)N3CCCCCC3)c(C)n(C)c2C)c1,inactive: -0.535%
16,Cc1cc2nc(-c3cccc(NC(=O)COc4ccc(Cl)c(C)c4)c3)oc2cc1C,inactive: 41.3%
17,Cc1ccc(CNC(=O)CN2CCN(Cc3ccc(F)cc3)C2=O)cc1,inactive: -4.89%
18,COc1ccccc1-c1cc(NC(=O)COc2ccc(C)c(C)c2)n(-c2ccccc2)n1,inactive: -13.1%
19,COc1ccccc1NC(=O)C1CCN(S(=O)(=O)c2cn(C)cn2)CC1,inactive: -15.5%
20,CCOc1ccc(CCNC(=O)c2cnc3sc(N4CCCCCC4)nn3c2=O)cc1,inactive: 0.0464%
21,COc1ccc(OC)c(NC(=O)CN2CCCN(Cc3cc(C)ccc3C)S2(=O)=O)c1,inactive: -2.8%
22,Cc1cccc2c1-c1sc(C(=O)N3CCN(c4cccc(Cl)c4)CC3)cc1CO2,inactive: -12.6%
23,COc1ccc(-c2cc(C(F)(F)F)nc(SCC(=O)NCc3ccc(Cl)cc3)n2)cc1,inactive: -4.73%
24,CC1=C(C(=O)Nc2ccc(F)cc2F)C2(CCCCCC2)OC1=O,inactive: -8.93%

row,Structure (SMILES),"activity change, negative = inhibition"
1,O=C(CN1C(=O)C2(SCC(=O)N2c2ccc(F)c(F)c2)c2ccccc21)Nc1ccccc1F (configuration not stated),inactive: -13.8%
2,O=C(CSc1nccn1Cc1ccc(Cl)cc1)NCc1ccccc1,inactive: -14.6%
3,COc1ccccc1CNC(=O)C(CC(C)C)N1Cc2ccccc2C1=O (configuration not stated),inactive: -29.3%
4,Cc1ccc(C)c(C(=O)COC(=O)CCCC(=O)Nc2cc(C(F)(F)F)ccc2Cl)c1,inactive: -15.2%
5,O=S1(=O)c2ccccc2N(Cc2ccc(Cl)cc2F)c2ccccc21,inactive: 2.58%
6,CN(C)S(=O)(=O)c1ccc2c(c1)c(=O)c(C(=O)N1CCN(c3cccc(Cl)c3)CC1)cn2C,inactive: 2.41%
7,COc1ccc(OC)c(NC(=O)CSC2=Nc3ccccc3C3=NC(CCC(=O)NCc4ccco4)C(=O)N23)c1 (configuration not stated),inactive: -8.85%
8,CCOC(=O)c1ccc(NC(=O)CN(c2ccc(C)cc2)S(=O)(=O)c2ccc(OC)cc2)cc1,inactive: -13.5%
9,CCC(=O)Nc1nnc(S(=O)(=O)N(C)Cc2ccc(Cl)cc2)s1,inactive: -0.815%
10,CCOc1ccccc1NC(=O)CSC1=Nc2ccccc2C2=NC(CC(=O)NC3CCCCC3)C(=O)N12 (configuration not stated),inactive: -14.7%
11,CCOc1ccc(-c2nc3c(c(SCC(=O)N4CCCCC4)n2)Cc2cc(C)ccc2O3)cc1,inactive: -18.2%
12,COc1ccc(N2CCN(CCCNC(=O)Nc3ccccc3Cl)CC2)cc1,inactive: -10.2%
13,COc1ccc(CCNC(=O)CN(c2ccc(C)cc2)S(=O)(=O)c2ccc(OC)cc2)cc1,inactive: -18.4%
14,CCOc1ccc(CN2C(=O)c3ccccc3Sc3ccc(C(=O)N4CCN(C)CC4)cc32)cc1,inactive: -20.7%
15,CCC(Sc1nc2cc(OC)c(OC)cc2c(=O)n1Cc1ccc(Cl)cc1)C(=O)NCCOC (configuration not stated),inactive: -3.28%
16,Cc1cc(NC(=O)c2cccnc2)cc(-c2nc3cc(Cl)ccc3o2)c1O,inactive: -5.89%
17,Brc1ccc(-c2ccc(CNCCSc3nnnn3-c3ccccc3)o2)cc1,inactive: 60.2%
18,O=C(NC1CC(=O)N(c2ccccc2)C1)c1ccc(S(=O)(=O)N2CCOCC2)cc1 (configuration not stated),inactive: -30.8%
19,c1ccc(-c2cn(-c3ccccc3)c3ncnc(N4CCN(c5ccccc5)CC4)c23)cc1,inactive: -16%
20,COc1ccccc1N1CCN(c2ccc3cc(S(=O)(=O)N4CCCCC4)ccc3n2)CC1,inactive: -28%
21,CCOC(=O)CC(NC(=O)c1cc2cc(Cl)ccc2oc1=O)c1ccc(C)cc1 (configuration not stated),inactive: -7.88%
22,CCOc1ccc(-n2nc(CO)c(C(=O)NCc3ccc(Cl)cc3)n2)cc1,inactive: 0.147%
23,CC1CCN(C(=O)CSc2c3c(nc4cc(Cl)ccc24)CCCC3)CC1,inactive: -15.2%
